According to patent US20150044216A1 (BIO THERA SOLUTIONS, published 2015):

Experiments:
[1] = biological target: T1, EGFR antigen (coated on ELISA plate) (UniProt P00533 partial chain, limits assumed); assay: ELISA affinity constant (Kaff), antigen coated at 1, 2 and 4 µg/mL
T1 construct: The construct of the coated antigen is not described

VEGF [2] = biological target: T2, VEGF (UniProt P15692-4 27-191, limits assumed); assay: as above
T2 construct: also called VEGF antigen; VEGF-A
T2 sequence (looked up): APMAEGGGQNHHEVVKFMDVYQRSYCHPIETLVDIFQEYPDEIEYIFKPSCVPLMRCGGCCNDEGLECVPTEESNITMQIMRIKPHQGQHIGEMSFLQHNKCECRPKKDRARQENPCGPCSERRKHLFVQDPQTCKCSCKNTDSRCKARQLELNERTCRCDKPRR

VEGF [3] = biological target: T2, VEGF; assay: cell-based or functional assay

B1: Antibody 906 (bispecific antibody, human IgG1, kappa)
light: DIQMTQSPSSLSASVGDRVTITCQASQDISNYLNWYQQKPGKAPKLLIYDASNLETGVPSRFSGSGSGTDFTFTISSLQPEDIATYFCQHFDHLPLAFGGGTKVEIKRTVAAPSVFIFPPSDEQLKSGTASVVCLLNNFYPREAKVQWKVDNALQSGNSQESVTEQDSKDSTYSLSSTLTLSKADYEKHKVYACEVTHQGLSSPVTKSFNRGEC
heavy: QVQESGPGLVKPSETLSLTCTVSGGSVSSGDYYWTWIRQSPGKGLEWIGHIYYSGNTNYNPSLKSRLTISIDTSKTQFSLKLSSVTAADTAIYYCVRDRVTGAFDIWGQGTLVTVSS[human IgG1 constant region not shown]GGGGSGGGGSGGGGSEVQLVESGGGLVQPGGSLRLSCAASGYDFTHYGMNWVRQAPGKCLEWVGWINTYTGEPTYAADFKRRFTFSLDTSKSTAYLQMNSLRAEDTAVYYCAKYPYYYGTSHWYFDVWGQGTLVTVSSGGGGSGGGGSGGGGSGGGGSDIQLTQSPSSLSASVGDRVTITCSASQDISNYLNWYQQKPGKAPKVLIYFTSSLHSGVPSRFSGSGSGTDFTLTISSLQPEDFATYYCQQYSTVPWTFGCGTKVEIK
notes: also called anti-EGFR and anti-VEGF bispecific antibody
**Q.** Which results are given for B1?
**A.** Ka [1]: 5.7e+08 M⁻¹; Ka (VEGF [2]): 2.53e+08 M⁻¹; inhibition of VEGF-stimulated HUVEC growth (CCK-8), EC50 (VEGF [3]): 0.025 µg/mL; potency in inhibition of VEGF-stimulated HUVEC growth against Bevacizumab (VEGF [3]): ~5 fold
